# Laboratory results published in PubChem BioAssay AID1963576 (National Center for Advancing Translational Sciences (NCATS), 2024).
# The whole screen tested about 46,000 compounds, of which about 60 (0.1%) were called active. Not shown: some 3% with an inconclusive outcome. The call rests on the fitted dose curve; in most records, active means well fitted inhibition curve with a large enough effect; inconclusive means small, poorly fitted or top-dose-only effect; inactive means no such curve, though single readings can be large or run the other way. Some of the results follow.
# Test: Primary qHTS assay for Inhibitors of ovarian cancer metastasis using an organotypic tumor microenvironment (TME) model. Further: nearly all actives have a fitted effect of over 65% in size.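 On Potency: count of GFP cancer cells still attached after washing and fixation.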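 On activity change, negative = inhibition: plate controls were DMSO wells for no effect and tomatine positive control wells for full effect.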
# Details: SKOV3ip1-GFP adhesion/invasion on 3D omental model, fluorescence; series mostly up to 45.8 µM; activity change, negative = inhibition: at the top concentration
# Outline: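 Adhesion/invasion was scored as fixed GFP-labeled SKOV3ip1 cell counts (488/509 nm), normalized to DMSO and tomatine controls. Cancer cells in serum-free medium, with four compound doses (0.36-46 umol/L), sat 2 hr at RT then 16 hr at 37 C on a 48 hr fibroblast/mesothelial/ECM culture.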
# Potency means the concentration at half of the fitted maximal effect.
SMILES,"activity change, negative = inhibition",outcome,Potency
O=C(COc1ccc(Cl)cc1)NCC(c1ccco1)S(=O)(=O)c1ccccc1 (stereo unspecified),inactive: -8.66%,–,–
Cc1ccn2c(Nc3ccccc3C)c(-c3ccc(N4CCOCC4)cc3)nc2c1,inactive: -8.33%,–,–
Cc1cc(C)c(NC(=O)CSc2n[nH]c(-c3ccccc3Cl)n2)c(C)c1,inactive: -5.75%,–,–
Cc1nn(-c2ccc(N3CCOCC3)nn2)c(C)c1CCC(=O)NCc1ccccc1,–,inactive,–
COC(=O)c1ccc(NC(=O)CN(Cc2ccccc2)S(=O)(=O)c2ccc(C)cc2)cc1,inactive: 7.51%,–,–
COc1cc(C2C(=O)N(C3CCCCCC3)CC(=O)N2Cc2ccccc2)ccc1OC(C)C (stereo unspecified),inactive: -10.2%,–,–
C=C(C)Cn1c(=O)c2c(nc3n2CCN3c2cc(C)cc(C)c2)n(C)c1=O,inactive: -11.6%,–,–
CN(C)CCNC(=O)CN1N=C(c2ccccc2)CCC1=O,–,inactive,–
COc1ccc(N2CCN(C(=O)C3CCN(Cc4nc(-c5ccc(Cl)cc5)oc4C)CC3)CC2)cc1,inactive: 25.4%,–,–
CCCSc1ncc(Cl)c(C(=O)Nc2ccc(S(=O)(=O)N3CCC(C)CC3)cc2)n1,–,inactive,–
Cc1ccc(Cl)cc1N1CCN(C(=O)c2cnn(C(C)(C)C)c2C2CCN(C(=O)OC(C)(C)C)CC2)CC1,inactive: -4.42%,–,–
CCOc1ccc(NC(=O)Cn2cc(C(=O)c3ccc(CC)cc3)c(=O)c3cc4c(cc32)OCO4)cc1,inactive: 17.8%,–,–
COc1ccc2c(c1)CC(C(=O)NCCN1CCN(c3ccccc3F)CC1)CO2 (stereo unspecified),inactive: -2.13%,–,–
CCCC(=O)N1CCc2cc(OC)c(OC)cc2C1COc1ccc2c(C)cc(=O)oc2c1 (stereo unspecified),inactive: 1.35%,–,–
COc1ccc(NC(=O)Cn2c(=O)cc(C)c3c(C)nn(C)c32)cc1,–,inactive,–
COc1ccc(CNc2nc(-c3ccc(OC)cc3)cc(C(F)(F)F)n2)cc1,–,inactive,–
COc1ccc(NC(=O)c2cnc(Nc3ccc(C)c(Cl)c3)c3ccccc23)c(OC)c1,–,inactive,–
O=C(Nc1c(C(=O)c2ccc(Cl)cc2)oc2ccccc12)c1cc(=O)c2ccccc2o1,inactive: 0.475%,–,–
Cn1nnnc1SCCCNCc1cccc(OCc2ccccc2F)c1,inactive: 4.88%,–,–
Cc1ccc(/C=C(\C#N)C(=O)Nc2ccc(Br)cc2)o1,inactive: -0.342%,–,–
O=C(Cn1cc(SCc2ccc(Br)cc2)c2ccccc21)N1CCCCC1,inactive: -5.45%,–,–
CCc1ccc(NC(=O)CN2CCN(C3CCCCC3)C(=O)C2=O)cc1,–,inactive,–
CCC(Sc1ncc(S(=O)(=O)c2ccc(C)cc2)c(=O)[nH]1)C(=O)Nc1cc(C)ccc1C (stereo unspecified),inactive: -7.86%,–,–
COc1ccc(CCN2C(=O)NC(NC(=O)c3ccccc3OC)(C(F)(F)F)C2=O)cc1OC (stereo unspecified),–,inactive,–

SMILES,"activity change, negative = inhibition",outcome,Potency
COc1ccc(NC(=O)c2ccco2)cc1NC(=O)c1ccc(C)c(C)c1,inactive: 9.01%,–,–
Cc1ccc2oc(=O)c(S(=O)(=O)c3ccc(F)cc3)cc2c1,–,inactive,–
CCc1nc2ccc(C(=O)NCc3ccc(N(C)C)cc3)cc2nc1CC,–,inactive,–
CCN(C(=O)CSc1nc2ccccc2n1Cc1ccc(C(=O)OC)cc1)c1ccccc1,inactive: 2.23%,–,–
CC(=O)Nc1ccc(NC(=O)CN2C(=O)CC(c3ccco3)Sc3ccccc32)cc1 (stereo unspecified),–,inactive,–
Cc1ccc(-c2cc(C(F)(F)F)n3nc(-c4cccc(Br)c4)cc3n2)cc1,inactive: -10.7%,–,–
CN(C(=O)c1c[nH]c2ccc(S(=O)(=O)Nc3cccc(C(F)(F)F)c3)cc2c1=O)C1CCCCC1,–,inactive,–
CCn1c(=O)cc(OCC(=O)N2CCN(c3ccc(C(C)=O)cc3)CC2)c2ccccc21,–,inactive,–
CC(C)c1cc(-c2n[nH]c(=O)n2-c2ccc3c(ccn3C)c2)c(O)cc1O,inactive: 6.13%,–,–
COc1ccc(N2CCN(C(=O)CN3CCSc4ccccc43)CC2)cc1,inactive: 5.97%,–,–
O=C(Cn1nc(Cc2ccncc2)c2ccccc2c1=O)Nc1cccc(C(F)(F)F)c1,inactive: 25%,–,–
COc1ccccc1CNC(=O)Cn1c(-c2ccc(F)cc2)cc(C(C)=O)c1C,inactive: 6.95%,–,–
Cc1ccc(CSCCC(=O)N2CCN(c3ccc(F)cc3)CC2)cc1,inactive: 2.5%,–,–
CCN(CC)CCN(C(=O)c1ccco1)c1nc2c(C)c(C)ccc2s1,inactive: -5.64%,–,–
CNC(=O)c1c(NC(=O)c2cc(=O)c3cc(C)c(C)cc3o2)sc2c1CCCC2,inactive: -2.48%,–,–
Cc1cccc(C)c1Nc1c(-c2ccc(N3CCOCC3)cc2)nc2ncccn12,inactive: 2.94%,–,–
O=C(CCSCc1ccc(Cl)cc1)NCCc1ccccc1,–,inactive,–
Cc1ccc(NC(=O)C2CCCN(c3ncnc4onc(C)c34)C2)c(Cl)c1 (stereo unspecified),inactive: 0.271%,–,–
O=C(O)C1CCCN(CCC=C(c2ccccc2)c2ccccc2)C1 (stereo unspecified),inactive: -13.6%,–,–
COc1ccc(Cl)cc1NC(=O)Nc1c[nH]c(=O)[nH]c1=O,inactive: 7.17%,–,–
Cc1c(Cl)cccc1N1CCn2c1nc1c2c(=O)n(CC(=O)O)c(=O)n1C,inactive: 0.707%,–,–
CCCCNC(=O)CC1Nc2cc(C)c(C)cc2NC1=O (stereo unspecified),–,inactive,–
CC1(C)OC2CC3C4CC(F)C5=CC(=O)C=CC5(C)C4C(O)CC3(C)[C@]2(C(=O)CO)O1 (stereo partly specified),inactive: 22.3%,–,–
CN(C)S(=O)(=O)c1ccc(C(=O)NCCSc2c(-c3ccc(Br)cc3)[nH]c3ccccc23)cc1,inactive: 11%,–,–

SMILES,"activity change, negative = inhibition",outcome,Potency
COc1ccccc1NC(=O)c1nn(C)c2c1CS(=O)(=O)c1ccccc1-2,inactive: -14.4%,–,–
CCN(C(=O)CCS(=O)(=O)c1ccc2c(c1)CCN2C(C)=O)c1cccc(C(F)(F)F)c1,inactive: 10.1%,–,–
O=C(NCC(c1cccnc1)N1CCc2ccccc2C1)C(=O)Nc1ccccc1F (stereo unspecified),inactive: 3.87%,–,–
O=C(Nc1ccc(-c2nc3ccccc3o2)c(O)c1)c1cc(Cl)ccc1Cl,–,inactive,–
CCCCc1ccc(Nc2cc(C)nc(-n3nc(C)cc3C)n2)cc1,–,inactive,–
CSc1ccc(CNC(=O)Cn2c(-c3cccs3)cc3cc(F)ccc32)cc1,inactive: -2.3%,–,–
O=C(/C=C\c1ccc2c(c1)OCO2)NC1CC(=O)N(c2ccccc2)C1 (stereo unspecified),inactive: -4.79%,–,–
CC1Cc2cc(S(=O)(=O)CCC(=O)Nc3ccc(F)cc3)ccc2N1C(=O)C1CC1 (stereo unspecified),inactive: -5.97%,–,–
CCN1CCc2c(sc(NC(=O)c3ccc(S(=O)(=O)N(C)C4CCCCC4)cc3)c2C(N)=O)C1,–,inactive,–
CCCCNc1nc2c(-c3cccc(C)c3)nnn2c2ccccc12,–,inactive,–
Cc1ccccc1-c1nnc(SCC(=O)N(C)c2ccccc2)o1,inactive: 25.8%,–,–
COc1cc(C(=O)N2CCNC(=O)C2CC(=O)Nc2ccc(C)c(C)c2)cc(OC)c1OC (stereo unspecified),–,inactive,–
Cc1ccc(S(=O)(=O)Nc2cc3c(C(=O)OCc4ccccc4)c(C)oc3c3ccccc23)c(C)c1,inactive: 4.06%,–,–
Cc1cccc(OCC(=O)Nc2cccc(C(=O)OCc3cc(=O)n4nc(C(C)C)sc4n3)c2)c1,inactive: -0.256%,–,–
CCCN(CCC)C(=O)Cn1c(=O)n(CCCCCC(=O)Nc2ccccc2)c(=O)c2sccc21,inactive: -9.79%,–,–
COc1ccc2c(c1)c1c(c(=O)n(-c3ccccc3C)c(=O)n1CC(N)=O)n2C,inactive: 13.6%,–,–
Cc1ccc(CNC(=O)CCc2c(C)nc3c(-c4ccc(F)cc4)c(C)nn3c2C)cc1,–,inactive,–
COC(=O)c1ccc(NC(=O)Cn2ccn3nc(-c4ccc(OC)cc4)cc3c2=O)cc1,inactive: 3.19%,–,–
Cc1ccc(/C=C/c2onc(C)c2S(=O)(=O)N2CCC(C(=O)Nc3ccc(OC(F)(F)F)cc3)CC2)cc1,inactive: -9.33%,–,–
COc1ccc(NC(=O)CN2C(=O)C(C)(C)c3cc(S(=O)(=O)N4CCCCC4)ccc32)cc1Cl,inactive: -3.83%,–,–
Cc1nn2c3c(cnc2c1-c1ccc(Cl)cc1)C(=O)CC(c1ccc(C(C)C)cc1)C3 (stereo unspecified),–,inactive,–
Cc1c(C(=O)OCc2ccccc2)[nH]c2c1C(=O)CC(c1ccc(N(C)C)cc1)C2 (stereo unspecified),inactive: 8.28%,–,–
CCc1sc(Nc2cccc(Cl)c2)nc1-c1cc2cccc(OC)c2oc1=O,inactive: -12%,–,–
COc1cccc(-n2c(SCC(=O)c3ccccc3)nc3c([nH]c4ccccc43)c2=O)c1,–,inactive,–

SMILES,"activity change, negative = inhibition",outcome,Potency
O=c1oc2cc(O)ccc2cc1-c1nc(-c2ccc(Cl)c(Cl)c2)cs1,inactive: 3.53%,–,–
CCCn1c(COc2cccc(C)c2)nc2ccccc21,inactive: -9.05%,–,–
COC(=O)C1=C(C)NC(=O)NC1c1cn(-c2ccccc2)nc1-c1ccc(OC)c(Br)c1 (stereo unspecified),–,inactive,–
COc1ccc(-c2ccc3ncc4c(c3c2)n(-c2ccc(N3CCNCC3)c(C(F)(F)F)c2)c(=O)n4C)cn1,–,–,active: 9.35 µM
Cc1ccc(S(=O)(=O)C(CNC(=O)COc2ccccc2)c2cccs2)cc1 (stereo unspecified),–,inactive,–
COc1cccc(NS(=O)(=O)c2ccc3[nH]c4c(c3c2)CCCCCC4)c1,inactive: -21.7%,–,–
Cn1c2c(c(=O)n(C)c1=O)C(c1cccc(O)c1)CC(=O)N2 (stereo unspecified),–,inactive,–
COc1ccc(NC(=O)C(NC(=O)Cc2cccs2)c2ccc(OC)cc2)cc1 (stereo unspecified),inactive: -5.15%,–,–
Cc1cc(Br)cc(C)c1NC(=O)c1cnc2ccccn2c1=O,inactive: 4.36%,–,–
COc1ccc(-c2onc(C)c2C)cc1S(=O)(=O)N1CCc2ccccc21,–,inactive,–
Cc1noc(C)c1S(=O)(=O)Nc1ccc(C(=O)Nc2ccc(C(C)C)cc2)cc1,–,inactive,–
CCOC(=O)c1ccc(NC(=O)CC2Nc3cccc4cccc(c34)NC2=O)cc1 (stereo unspecified),inactive: -6.96%,–,–
CCc1ccc(CN(C(=O)c2ccc(OC)cc2)C2CCS(=O)(=O)C2)cc1 (stereo unspecified),inactive: 4.75%,–,–
CCC12CN3CC(CC)(CN(C1)C3c1cccc(OC)c1O)C2=O (stereo unspecified),inactive: -16.5%,–,–
COc1cc2c(cc1NC(=O)COc1ccc(Br)c(C)c1)oc1ccccc12,inactive: -8.07%,–,–
COc1ccc(-c2nc3ccccc3s2)cc1NC(=O)c1ccc(C#N)cc1F,–,inactive,–
CCn1c(C(=O)NCc2ccc(C)cc2)cc2sc(Cl)cc21,–,inactive,–
Cc1cccc(N2CCN(C(=O)c3cn(C)c4ccc(S(=O)(=O)N(C)C)cc4c3=O)CC2C)c1 (stereo unspecified),inactive: 11.9%,–,–
CCOC(=O)Cn1c(=O)n(-c2ccccc2OC)c2nc(-c3ccccc3)nc(C(N)=O)c21,inactive: 25.6%,–,–
CCc1ccc(CNC(=O)c2ccc(CS(=O)c3ccc(Br)cc3)o2)cc1 (stereo unspecified),–,inactive,–
CCc1nnc(SCC(=O)Nc2ccc(Cl)cc2F)c2cc3occc3n12,inactive: 18.3%,–,–
CCOC(=O)c1c(NC(=O)CCCOc2ccc(C)cc2)sc2c1CCC(C)C2 (stereo unspecified),–,inactive,–
COc1ccc(C2=CC(c3ccccc3Cl)n3nc(-c4ccc(C)cc4)nc3N2)cc1 (stereo unspecified),inactive: -2.19%,–,–
CCc1ccc(-n2c(SCc3nc(-c4cc(OC)ccc4OC)no3)nnc2-c2ccccc2)cc1,inactive: 1.69%,–,–
